In the assay the target is T1, rat GLP-1 receptor expressed in INS-1E cells (rat, UniProt P32301 22-463).
T1 sequence (looked up): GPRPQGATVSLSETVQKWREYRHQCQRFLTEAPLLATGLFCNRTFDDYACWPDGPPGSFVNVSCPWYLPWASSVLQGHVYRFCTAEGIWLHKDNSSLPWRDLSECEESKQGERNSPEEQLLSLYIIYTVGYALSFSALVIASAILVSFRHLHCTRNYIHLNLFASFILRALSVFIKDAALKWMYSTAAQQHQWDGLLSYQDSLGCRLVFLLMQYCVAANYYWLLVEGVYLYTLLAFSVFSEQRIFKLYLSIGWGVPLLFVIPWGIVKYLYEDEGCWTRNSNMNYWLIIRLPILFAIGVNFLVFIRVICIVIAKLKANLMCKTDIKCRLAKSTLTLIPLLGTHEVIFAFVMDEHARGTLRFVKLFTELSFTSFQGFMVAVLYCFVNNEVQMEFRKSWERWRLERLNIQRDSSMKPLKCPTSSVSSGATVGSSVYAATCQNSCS
Briefly: cell-based or functional assay.

Consider one molecule from patent US20080044411A1 (Janssen / Centocor, published 2008).

B1: GLP-1 MMB of SEQ ID NO:4 (Fc fusion)
chain: HSEGTFTSDVSSYLEGQAAKEFIEWLVKGRGGGSGGGSGTLVTNSS[human IgG4 Fc with S228P F234A L235A (EU numbers) omitted]
For the molecule B1, the “LANCE cAMP assay in INS-1E cells, EC50” value was found to be 8.7 nM.
